About 7,200 (1.8%) of roughly 410,000 compounds were called active. The shares of active, inactive and inconclusive entries below differ from those in the screen. Calls follow the shape of the dose curve; as a rule, active = well fitted activation curve with a large enough effect; inconclusive = small, poorly fitted or top-dose-only effect, or another doubt; inactive = no such curve, though single readings can be large or run the other way. Potencies beside an inconclusive call are fits to weak or partial responses and may not hold up.
Experiment: qHTS of TDP-43 Inhibitors; also: nearly all actives have a fitted effect of over 50% in size; as to growth rescue (activation): % of control where 0% means no effect
Settings: TDP-43 expressing yeast growth rescue, BacTiter-Glo, 24 h; growth rescue (activation): at 46.1 µM (top of the series) unless noted
Procedure, shortened: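 Readout is BacTiter-Glo luminescence of cell growth, so inhibitors register as activators. TDP-43-expressing yeast at OD600=0.02 in galactose medium, after raffinose pregrowth to mid-log, were incubated with compound for 24 hr at 30 deg C.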
Potency is read from the fitted curve at half-maximal effect; tags tell the direction and shape of the fitted curve.

Potency, active:
Cc1cc(C(=O)CSc2nc3ccccc3o2)c(C)n1C1CC1 22.4 µM
CCCOc1ccc(C(=O)NNC(=S)NC(=O)c2cc(-c3ccc(Cl)cc3)nc3ccccc23)cc1 12.6 µM
CCCNC(=O)c1cc2c(c(-c3cccc(-c4ccccc4F)c3)n1)[C@@H](CCO)N(C(=O)CC1CC1)C2 14.1 µM
CCCN(CC(=O)Nc1cccc(Br)c1)CC(=O)Nc1ccc(F)c(F)c1F 14.1 µM
CCOC(=O)c1ccc(-c2ccc(C=O)o2)cc1 11.2 µM
CCc1nc(N2CCN(C(=O)CCCl)CC2)c2c3c(sc2n1)CCCC3 20 µM
O=c1sc(Nc2ccccc2)nc2ccsc12 17.8 µM
COc1cccc(CNc2nc3cc(-c4ccc(C)cc4)sc3c(=O)n2C)c1OC 25.1 µM
O=C(COC(=O)/C=C/c1ccc(Cl)cc1Cl)NCC1CCCO1 (centres undefined) 20 µM
COc1ccc(NC(=O)CC2(CC(=O)O)CCCC2)cn1 12.6 µM
CC(=O)N1CCN(c2cc(-c3ccccc3)nc3cc(-c4cccc(Cl)c4)nn23)CC1 2.24 µM

Potency, inconclusive:
CC(=O)c1c(C)[nH]c(C(=O)OCc2ccccc2)c1C 25.1 µM [activator, single point]
COc1ccc(NC(=S)NC(=O)c2ccc(Br)o2)cc1 1.26 µM [activator, full curve]
O=[N+]([O-])c1cc(/C=N/O)ccc1Oc1ccccc1Cl 3.55 µM [activator, single point]
CN1OC[C@@H]2CN(C(=O)C(C)(C)C)[C@H](c3ccc(-c4cc5ccccc5o4)cc3)C[C@@H]21 31.6 µM [activator, single point]
CC(=O)CC(=O)Nc1ccc(Nc2ccccc2)cc1 2.24 µM [activator, full curve, poor fit]
CC(C)(C)OC(=O)N1CCC(c2c(C(=O)NCc3cccs3)cnn2-c2cccc(F)c2)CC1 14.1 µM [activator, single point]
CC(OC(=O)c1ccc([N+](=O)[O-])s1)C(=O)NC1CCCCC1C (centres undefined) 11.2 µM [activator, partial curve]
Oc1c(Br)cc(/C=N/Nc2ccc(Cl)nn2)cc1Br 0.562 µM [activator, full curve, poor fit]
Cc1ccc(NNC(N)=S)cc1Cl 35.5 µM [activator, partial curve]
Cc1csc2ncc(C(=O)NCCc3ccccc3)c(=O)n12 11.2 µM [activator, partial curve]
Cc1cccc(C)c1NC(=O)CN(C)C(=O)c1ccccc1OCc1ccc(F)cc1 35.5 µM [activator, single point]
Cc1ccc(C)c(NC(=O)CSc2nccn2-c2cccc(C)c2C)c1 28.2 µM [activator, partial curve]
O=C(CSc1nnc(-c2ccco2)o1)N1c2ccccc2CCc2ccccc21 17.8 µM [activator, single point]
O=S(=O)(c1ccccc1Cl)N1CCC(O)(c2ccc3c(c2)OCO3)CC1 17.8 µM [activator, single point]
CC(=O)Nc1ccc(NC(=O)c2nc(S(=O)(=O)Cc3ccc(F)cc3)ncc2Cl)cc1 5.01 µM [activator, full curve]
CCCCNC(=O)c1cccc(NC(=O)c2nsc3ccccc23)c1 8.91 µM [activator, full curve, poor fit]
Cc1ccc(-n2c(=O)[nH]cc(C(=O)N3CCc4ccccc43)c2=O)cc1C 0.562 µM [activator, full curve, poor fit]
Cc1nn(-c2nc(-c3ccccc3)cc(C(F)(F)F)n2)c(C)c1Cl 12.6 µM [activator, partial curve]
Cn1c2ccccc2c2cc(/C=N/NC(=O)c3ccc(O)cc3O)ccc21 12.6 µM [activator, partial curve]
O=C(Nc1cccc(F)c1)N1CCCCCC1 3.55 µM [activator, partial curve]
COCc1cccc(-c2csc(C(O)c3ccccc3)n2)c1 (centres undefined) 28.2 µM [activator, partial curve]
O=C(NNC(=O)c1cnccn1)c1ccc(Cl)c(Cl)c1 31.6 µM [activator, single point]
Cc1ccc2ccc(C(Nc3ccccc3)c3ccccc3)c(O)c2n1 (centres undefined) 5.62 µM [activator, single point]
Cc1ccc(-n2c(Cc3ccccc3)n[nH]c2=S)cc1 17.8 µM [activator, single point]
N#Cc1c(SCc2ccccc2)sc(C(=O)c2ccccc2)c1N 5.62 µM [activator, full curve, poor fit]
CC(C)CN(C(=O)COC(=O)c1ccc([N+](=O)[O-])o1)C1CCS(=O)(=O)C1 (centres undefined) 31.6 µM [activator, single point]
CC(=O)c1ccc(NC(=O)c2cc(C)nn2-c2ccccc2)cc1 14.1 µM [activator, partial curve]
CCSc1ccc(-c2cc(NC=O)c3ncc(-c4cc(OC)c(OC)c(OC)c4)n3c2)cc1 35.5 µM [activator, single point]
N/C(=N\OC(=O)CCc1ccccc1)c1ccc(Cl)cc1 20 µM [activator, single point]
CCOc1ccc(CNC(=O)c2ccc(Sc3ccc(C)cc3)c(NC(C)=O)c2)cc1 17.8 µM [activator, single point]
CCOC(=O)c1cc2c(c(-c3cccc(-c4cc5ccccc5o4)c3)n1)[C@@H](CCO)N(S(=O)C(C)(C)C)C2 (some centres undefined) 3.98 µM [activator, full curve, poor fit]
COc1cc(-c2nc3ccc(C)cn3c2NCc2ccccc2)ccc1-c1cccc(Cl)c1 4.47 µM [activator, full curve, poor fit]
CCOc1ccc(-c2cccc(NS(=O)(=O)c3ccc(F)cc3F)c2)nn1 35.5 µM [activator, partial curve]
Cc1ccc(C(=O)Nc2ccc3c(c2)OCO3)cc1S(=O)(=O)N1CCCC1 39.8 µM [activator, partial curve, poor fit]
Cn1c2ccccc2c(=O)c2ccc(C#CC3(O)CCCCC3)cc21 31.6 µM [activator, single point]
Cc1ccc(S(=O)(=O)n2nc(OC(=O)c3c(F)cccc3Cl)cc2N)cc1 0.562 µM [activator, full curve]
COC(=O)C1=NN(C(=O)c2ccc(C)cc2)C(O)(c2ccc(Cl)cc2)C1 (centres undefined) 22.4 µM [activator, single point]
CC(C)(C)OC(=O)N1CCC(NC(=O)c2[nH]cnc2C(=O)Nc2ccc(Br)cc2F)CC1 11.2 µM [activator, partial curve]
Cc1ccc(C)c(N2CCN(C(=O)Cn3cnc4onc(-c5ccc(F)cc5)c4c3=O)CC2)c1 35.5 µM [activator, single point]
Cc1ccc(S(=O)(=O)N2CCOCC2)cc1C(=O)Nc1cc(S(=O)(=O)N2CCCCC2)ccc1O 31.6 µM [activator, partial curve]
Cc1cc(C)c2ccc(C)[n+]([O-])c2c1O 22.4 µM [activator, single point]
Cc1cc(C)cc(NC(=O)Cn2c(-c3cncs3)nc3ccccc32)c1 35.5 µM [activator, partial curve]

Growth rescue (activation), inconclusive:
COc1ccc(CS(=O)/C(Cl)=C(/Cl)C(=O)Nc2ccc(OC)nc2)cc1 (centres undefined) -93.4% [activator]
O=Cc1coc2ccc3ccccc3c2c1=O -89.9% [activator]

Growth rescue (activation), inactive:
COC(=O)c1cnn(-c2nc(OC)cc(OC)n2)c1C 5.5%
COc1ccc(N2CCN(S(=O)(=O)c3ccc(F)c(C(=O)Nc4ccccc4Cl)c3)CC2)cc1 15.3%
COc1ccc(OC)c(NC(=O)c2oc(=O)c3ccccc3c2-c2ccccc2)c1 12.1%
COc1ccc(Sc2nc(-c3ccccn3)ncc2OC)cc1 2.2%
O=C(N(c1ccccc1)c1ccccc1)N(c1ccccc1)c1ccccc1 6.41%
CCCCOc1ccc(C2c3c(oc4ccc(C)cc4c3=O)C(=O)N2CCCN(C)C)cc1OCC (centres undefined) -0.56%
CCN(CC)CCNC(=O)C1CCN(C(=O)c2cnn(-c3ccccc3)c2-n2cccc2)CC1 10.1%
O=C1Nc2ccccc2Oc2cc([N+](=O)[O-])cc(Oc3ccccc3)c21 -28.7%
O=[N+]([O-])c1ccc(/C=N/Nc2nc(N3CCCCC3)nc(N3CCCCC3)n2)cc1 5.19%
CC1(C)SC2c3ccccc3C(=O)N2[C@@H]1C(=O)NC1CCCC1 (some centres undefined) 0.727%
O=C(c1ccc(Cn2cc(Cl)cn2)o1)N1CCN(Cc2ccc3c(c2)OCO3)CC1 -19.1%
COc1ccc2sc(-c3ccc(S(C)(=O)=O)cc3)c(-c3ccc(SC)cc3)c2c1 -3.15%
O=[N+]([O-])c1ccccc1-c1ccc(C(=S)N2CCCC2)o1 -14.4% [at 9.22 µM]
COc1ccc(-c2noc(CNC(=O)c3ccccc3Br)n2)cc1 20.6%
